Assay results as given in the supplement of paper PMC3334620.
In all, about 33,000 sequences were measured (“E-score (-0.5 to 0.5)”: median about -0.036, highest 2% from about 0.37 on). This is one part of the list.

The sequences below were run against T1, Yer064c (UniProt P40041) (assay: PBM E-score (8-mer binding enrichment) (E-score (-0.5 to 0.5)); higher = stronger / more preferred TF binding; most listed sequences are background and not binding sites). Conditions: protein concentration: 200 nM; construct: GST-full length.
T1 sequence: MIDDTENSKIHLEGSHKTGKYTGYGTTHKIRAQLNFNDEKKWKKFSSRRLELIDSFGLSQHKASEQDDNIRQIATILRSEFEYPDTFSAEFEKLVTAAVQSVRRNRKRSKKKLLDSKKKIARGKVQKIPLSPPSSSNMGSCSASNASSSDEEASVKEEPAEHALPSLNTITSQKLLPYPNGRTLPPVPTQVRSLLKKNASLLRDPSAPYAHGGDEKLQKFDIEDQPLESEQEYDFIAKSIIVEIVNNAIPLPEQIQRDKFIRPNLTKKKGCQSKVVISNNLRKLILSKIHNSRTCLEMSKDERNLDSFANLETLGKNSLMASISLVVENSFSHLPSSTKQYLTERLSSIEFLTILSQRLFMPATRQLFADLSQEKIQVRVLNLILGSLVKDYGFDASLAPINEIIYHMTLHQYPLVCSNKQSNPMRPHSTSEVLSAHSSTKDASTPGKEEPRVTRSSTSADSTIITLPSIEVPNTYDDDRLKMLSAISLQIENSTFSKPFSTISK
Method in brief: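 PURExpress in vitro transcription/translation supplied GST-tagged yeast transcription factors, either full-length or DNA-binding domain. Applied at about 100-200 nM to universal all-10-mer Agilent arrays double-stranded by primer extension, the bound protein was detected with fluorescent anti-GST. E-scores, modified Wilcoxon-Mann-Whitney statistics, were given by the Universal PBM Analysis Suite to ungapped eight-base words pooled with their reverse complements after masliner normalisation.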

Sequence	PBM E-score
CGCAGGCA	-0.126
CACGCCGA	0.045
CTCTCTAC	0.00472
ATGGGTGA	0.187
CCGACACG	0.00029
GTTCCACA	-0.0699
GGGCACCA	-0.333
CGGTCGCA	-0.248
AAAAAATA	-0.00362
CGGCGAAG	-0.184
GTATTGAA	0.115
TATACCAA	-0.0596
AGTTCTCA	0.179
TCTGGCAA	-0.0433
GCTATCAA	0.0782
AACAAATC	0.145
GTCTACCA	0.0416
TGTCTCAA	0.29
CGCGCGTA	-0.0265
AGGTTATG	-0.0963
GATCTGGA	-0.221
AGCTCGAT	0.014
GAAGCTAA	-0.0611
CTGTAAAA	0.106
GCTACTCC	-0.118

Sequence	PBM E-score
ACAGTATA	-0.0459
GGACGTCA	-0.0394
GGCATCTA	-0.0249
ACAAACTA	0.0163
ATTCTTAG	0.202
ACACCCTG	0.137
CCCCCGTC	-0.377
AATTCTCG	-0.0439
GGCATGAA	-0.0473
AGAACGCC	-0.178
AATGTAAT	0.0265
CCGCGTCC	-0.228
AATGCAAA	0.0614
GATTAACC	0.294
GATATAAA	0.00569
ACGGCAAC	-0.019
GATTATGC	0.112
CCCGAGCG	0.0533
AAGAACCT	-0.288
ACTATTGG	-0.0677
CTATGTCA	-0.0224
CCTAATGA	0.076
CGTTGAGA	0.159
AGGCTTTC	-0.0873
ACAACTTG	-0.127

Sequence	PBM E-score
ACACCACA	0.0441
ACCCTTGC	-0.0882
GGTATCTA	-0.163
CTAACGTA	0.197
GTAATTAA	0.148
AGAGTGAC	0.0971
TCATATGA	0.393
ACGCTCTC	-0.0508
GGAAACGA	0.176
AAGCAGCC	-0.198
AGAATTAA	-0.117
AACCGGTT	-0.0675
AATGCCAT	-0.214
TCCGCCGA	-0.138
CAGGTCAG	-0.0795
GCAGGTCA	-0.0837
AACCGGGT	-0.141
ACACAGAA	0.127
CCGGGCCG	-0.182
TATCCAGA	-0.0829
AACAGAAC	0.0521
AGGCTCTG	-0.169
TAGAAGGA	-0.223
CACCTTAC	-0.00359
ATAGCGTG	-0.132

Sequence	PBM E-score
ATTGATTC	0.301
ACACATGA	0.284
ACCGTCTG	-0.294
TCAACTGA	0.2
AAATGGTG	0.00492
AGGATAGC	-0.128
CATTACAG	-0.0355
AGGCATAG	-0.24
CCCCGGCA	-0.192
ATAGGTGC	-0.135
TCGTAGAA	-0.0901
CGAGATAA	0.0474
CGGGTTAA	0.00304
CGCCATCA	-0.26
GGGGTGTA	-0.17
CATGACGG	-0.11
AGCACCTA	-0.287
AACGCACC	-0.168
ACTGTATC	-0.163
ATACAGTC	0.16
ATCTTCGC	0.0563
AAAAGGGG	-0.189
GGAAATAA	0.0785
ATGGAATG	-0.094
CAGGCTAA	-0.0864

Sequence	PBM E-score
CGAAAACA	-0.133
GTTACCTA	0.014
AGATCCGA	-0.0932
ATTTCCGC	0.0475
CGAGAGCA	-0.109
CTTGAAAA	0.0333
AACCGGTC	-0.202
AGACCGGA	0.0278
ATCCCCTA	-0.226
AATTTCCC	-0.228
ACGCTCAA	0.0189
CGCGCCCG	-0.139
AGCACAAG	0.107
CGACTGTC	0.123
CGCCGCAC	-0.255
AAGCCTGT	-0.00621
CGCAAATC	-0.174
CTGCCACA	-0.142
GCGAGCAA	-0.119
CTCTAAAC	-0.0222
AACTCTAA	0.12
GGATGATA	-0.185
CTGGCCAG	-0.0767
GCGTAAAA	0.121
ATGCGATG	0.0307

Sequence	PBM E-score
GCTCTCTA	-0.147
ACGAGATG	0.0698
CGTTGAAA	-0.0397
CTTTTAGC	0.00776
TCACCAAA	0.166
CCACTGAA	0.162
AGCCGACC	-0.0628
CATTAGCC	-0.0726
AGAGGGAA	-0.207
CCGCAACC	-0.145
AATCGTTG	0.0993
CGGCAGAG	-0.148
AAGTCATG	0.465
ACACATTC	0.124
AAATGAGA	0.12
CACTGAGA	0.0924
AGCGCGTA	0.0749
GCGGACGA	-0.045
ACCTGAAG	-0.0636
AAATAGGT	-0.105
AGTAAACT	0.0427
TAAATTGA	0.199
ATCCCGAA	-0.0406
AGAGCATG	-0.038
AATGTTCT	-0.193

Sequence	PBM E-score
GTAGTCTA	0.29
CTACTAAG	0.0152
TGCATACA	-0.114
CGGTACTA	-0.177
AGGTAGAG	-0.155
CGGCAGTA	-0.26
ACAGCGAC	0.00958
ATTCCCGG	0.117
CACGTGGG	-0.174
AGAAAATA	0.143
CCCGGTCC	-0.293
TTAAGAAA	0.0927
AAAAATAA	0.143
GCTCAAGC	-0.0445
GGCCCATA	-0.0655
CCGTAGAA	-0.136
ACCGCGAC	0.198
AAGCTTGC	-0.213
GGACGCTA	-0.36
CCGATCGA	-0.0393
AGTCACGC	0.469
ACCTGCCT	-0.16
